Laboratory results from patent US20200306373A1 (Hoffmann-La Roche, published 2020).

Molecular target: T1, murine ICOS (murine, UniProt Q9WVS0 21-200)
T1 construct: in the splenocyte assays the endogenous protein on murine T cells; also called mICOS
T1 sequence: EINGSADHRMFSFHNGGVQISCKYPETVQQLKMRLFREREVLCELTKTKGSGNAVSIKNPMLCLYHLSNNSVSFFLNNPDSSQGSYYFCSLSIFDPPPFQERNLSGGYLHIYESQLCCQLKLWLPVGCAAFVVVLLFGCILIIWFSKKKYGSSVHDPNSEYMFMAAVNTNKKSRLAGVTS
Assay: flow cytometry on CHO-K1 transfectants expressing murine ICOS
Experimental: The staining was fixed for 20 min at 4° C. in the dark, using 75 μl of 1% PFA in FACS buffer per well. Fluorescence was analyzed by FACS using a FACS Fortessa (Software FACS Diva). Binding curves were obtained using GraphPadPrism6 and are shown in FIGS. 6A-6C and 7A-7B, respectively.

EC50: 23.6 nM
B1: Untargeted mICOSL, mIgG1 DAPG, bivalent murine ICOSL (Gly47-Lys279), monovalent untargeted moiety c-terminal fused of the heavy chain C region (Fc fusion)
chain 1: ETEVGAMVGSNVVLSCIDPHRRHFNLSGLYVYWQIENPEVSVTYYLPYKSPGINVDSSYKNRGHLSLDSMKQGNFSLYLKNVTPQDTQEFTCRVFMNTATELVKILEEVVRLRVAANFSTPVISTSDSSNPGQERTYTCMSKNGYPEPNLYWINTTDNSLIDTALQNNTVYLNKLGLYDVISTLRLPWTSRGDVLCCVENVALHQNITSISQAESFTGNNTKNPQETHNNELKGSPGSSSSSGSAGSPGSSSSSGSADGCKPCICTVPEVSSVFIFPPKPKDVLTITLTPKVTCVVVAISKDDPEVQFSWFVDDVEVHTAQTKPREEQINSTFRSVSELPIMHQDWLNGKEFKCRVNSAAFGAPIEKTISKTKGRPKAPQVYTIPPPKKQMAKDKVSLTCMITNFFPEDITVEWQWNGQPAENYKNTQPIMKTDGSYFVYSKLNVQKSNWEAGNTFTCSVLHEGLHNHHTEKSLSHSPGGGGGSGGGGSGGGGSGGGGS[about 100 residues cut from this listing]
chain 2: ETEVGAMVGSNVVLSCIDPHRRHFNLSGLYVYWQIENPEVSVTYYLPYKSPGINVDSSYKNRGHLSLDSMKQGNFSLYLKNVTPQDTQEFTCRVFMNTATELVKILEEVVRLRVAANFSTPVISTSDSSNPGQERTYTCMSKNGYPEPNLYWINTTDNSLIDTALQNNTVYLNKLGLYDVISTLRLPWTSRGDVLCCVENVALHQNITSISQAESFTGNNTKNPQETHNNELKGSPGSSSSSGSAGSPGSSSSSGSADGCKPCICTVPEVSSVFIFPPKPKDVLTITLTPKVTCVVVAISKDDPEVQFSWFVDDVEVHTAQTKPREEQINSTFRSVSELPIMHQDWLNGKEFKCRVNSAAFGAPIEKTISKTKGRPKAPQVYTIPPPKEQMAKDKVSLTCMITNFFPEDITVEWQWNGQPAENYDNTQPIMDTDGSYFVYSDLNVQKSNWEAGNTFTCSVLHEGLHNHHTEKSLSHSPGGGGGSGGGGSGGGGSGGGGS[about 100 residues cut from this listing]GSGFDYWGQGTLVTVSS
notes: also called DP47-mICOS-L; DP47-mFAP-L
